Source: PubChem BioAssay AID493035 (The Scripps Research Institute Molecular Screening Center, 2011)
Screen size: about 2,000 compounds; about 45 (2%) were called active.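 The calls were made as follows: active = inhibition above the mean of all tested compounds plus 3 SD (cut at about 49% in these data); inactive = the rest.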 Some of the results follow.

biological target: Perilipin-5 (Homo sapiens) + 1-acylglycerol-3-phosphate O-acyltransferase ABHD5 (Homo sapiens) (UniProt Q00G26+Q8WTS1); assay: blockers of ABHD5 binding to perilipin-5 – cell lysate, split luciferase complementation, luminescence, NIH validation set, pilot screen (AID 493035);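 also: 0% = DMSO only wells while the 100% control is not stated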; settings: split G. princeps luciferase complementation, lysates, 4 h; at 7.9 µM, hits give high values
UniProt Q00G26, sequence (Q00G26 whole entry, looked up): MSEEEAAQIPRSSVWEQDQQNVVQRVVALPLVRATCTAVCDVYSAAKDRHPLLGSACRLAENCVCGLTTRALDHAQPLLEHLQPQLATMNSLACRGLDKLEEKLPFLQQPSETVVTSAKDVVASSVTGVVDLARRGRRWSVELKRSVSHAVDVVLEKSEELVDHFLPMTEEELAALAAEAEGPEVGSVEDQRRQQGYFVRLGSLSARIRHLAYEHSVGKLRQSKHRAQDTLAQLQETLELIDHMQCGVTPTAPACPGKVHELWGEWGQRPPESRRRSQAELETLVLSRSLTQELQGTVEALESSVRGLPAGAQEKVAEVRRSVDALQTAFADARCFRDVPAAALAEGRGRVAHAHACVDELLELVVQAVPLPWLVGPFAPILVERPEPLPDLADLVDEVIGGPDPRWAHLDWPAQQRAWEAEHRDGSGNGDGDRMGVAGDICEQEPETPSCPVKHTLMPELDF
UniProt Q00G26, sequence (Q8WTS1 whole entry, looked up): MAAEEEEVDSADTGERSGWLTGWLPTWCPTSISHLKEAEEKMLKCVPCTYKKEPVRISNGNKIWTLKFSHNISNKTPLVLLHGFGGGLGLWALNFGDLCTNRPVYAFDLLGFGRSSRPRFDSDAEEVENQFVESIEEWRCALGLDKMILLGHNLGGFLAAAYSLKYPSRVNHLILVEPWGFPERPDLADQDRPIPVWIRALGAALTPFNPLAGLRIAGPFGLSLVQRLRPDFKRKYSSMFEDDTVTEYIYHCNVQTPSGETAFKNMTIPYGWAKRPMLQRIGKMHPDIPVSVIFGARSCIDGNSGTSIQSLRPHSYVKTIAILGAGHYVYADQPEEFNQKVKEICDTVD

| Compound | inhibition |
| --- | --- |
| Cc1ccc(N2CCN(C(=S)c3ccc(-c4cccc([N+](=O)[O-])c4)o3)CC2)cc1 | inactive: 16.9% |
| COc1ccc(-c2cc(=Nc3ccc(C)cc3)c3ccccc3o2)cc1 | inactive: 9.1% |
| Cc1ccc(C(=O)NC(=S)NCCCN2CCOCC2)cc1 | inactive: 5.17% |
| CSc1cccc(NC(=O)/C=C/c2ccccc2)c1 | inactive: -2.89% |
| COc1c2occc2c(OC)c2c(=O)cc(C)oc12 | inactive: -1.87% |
| COc1ccc(CCN(C)CCCC(C#N)(c2cc(OC)c(OC)c(OC)c2)C(C)C)cc1OC (stereo not drawn) | inactive: -14% |
| O=C(O)C(O)c1ccccc1 (stereo not drawn) | inactive: -5.79% |
| COc1ccc(-c2coc3cc(OC(=O)N4CCOCC4)ccc3c2=O)cc1 | inactive: -5.03% |
| CC(C)(C)C(=O)N1CCCC1C(=O)O (stereo not drawn) | inactive: -7.48% |
| COc1cccc2c1OCC1COc3c(c(=O)n(C)c(=O)n3C)C21 (stereo not drawn) | inactive: 8.11% |
| CCCOc1ccc(-c2cc(C(=O)NCC3CCCO3)c3ccccc3n2)cc1 (stereo not drawn) | inactive: -0.81% |
| O=C(NCCc1c[nH]c2ccccc12)c1cccnc1 | inactive: 3.21% |
| CC(=O)OCC(OC(C)=O)C(OC(C)=O)C(OC(C)=O)C(=O)Nc1cccc(C)c1 (stereo not drawn) | inactive: -4.11% |
| CC1CC(OC(=O)C(O)c2ccccc2)CC(C)(C)N1C (stereo not drawn) | inactive: 3.73% |
| Cc1nnc(NS(=O)(=O)c2ccc(N)cc2)s1 | inactive: -2.03% |
| CCN1CCN(c2cc3c(cc2F)c(=O)c(C(=O)O)cn3C2CC2)CC1 | inactive: -15.4% |
| CC(C)N1C(=O)/C(=C\c2nc3ccccc3c(=O)[nH]2)c2ccccc21 | active: 64.9% |
| COc1cc(C2CC(=O)NC3=C2C(=O)CC(C)(C)C3)ccc1O (stereo not drawn) | inactive: 2.93% |
| N#C/C(=C/c1ccccc1)C(=O)NCc1ccccc1 | active: 62.6% |
| Cc1cccc(C(=O)c2cccc(C)c2)c1 | inactive: -8.84% |
| O=C(CCC1CCCN(C(=O)c2ccsc2)C1)NCc1ccc(F)c(F)c1 (stereo not drawn) | inactive: -5.13% |
| O=C(O)CCCc1ccccc1 | inactive: 1.44% |
| Cc1cnc(NC(=O)C2=C(O)c3ccccc3S(=O)(=O)N2C)s1 | inactive: -3.7% |
| COc1ccc(/C=C\c2nc(=O)c3ccccc3o2)cc1 | inactive: 2.36% |

| Compound | inhibition |
| --- | --- |
| CC1(C)O[C@@H]2C[C@H]3[C@@H]4CCC5=CC(=O)C=C[C@]5(C)[C@@]4(F)[C@@H](O)C[C@]3(C)[C@]2(C(=O)CO)O1 | inactive: -8.39% |
| CCn1nc(C(=O)O)c(=O)c2cc3c(cc21)OCO3 | inactive: -10.8% |
| COc1cccc(=O)c2c(C)n(CC(=O)c3ccccc3)c(C)c12 | inactive: 23.8% |
| CC(=O)Nc1ccc(S(=O)(=O)c2ccc(N)cc2)cc1 | inactive: -7.41% |
| Fc1ccc(-n2cc(CNCCc3ccccn3)c(-c3ccccc3Cl)n2)cc1 | inactive: -4.93% |
| CCCN1CCC(NC(=O)Nc2ccc(Br)cc2)CC1 | inactive: -11.9% |
| CCS(=O)(=O)Nc1cc(OC)c(OC)cc1Cc1nccc2cc(OC)c(OC)cc12 | inactive: -5.76% |
| CN(C)c1ccc(CNCCC(Cc2ccccc2)c2ccco2)cc1 (stereo not drawn) | inactive: -20.2% |
| O=C1ON=C(c2ccc(Cl)cc2)/C1=C/c1ccc(O)cc1 | active: 70.2% |
| Cc1ccc(Cl)c(Nc2ccccc2C(=O)O)c1Cl | inactive: 16.1% |
| CC(C(=O)O)c1ccc(N2Cc3ccccc3C2=O)cc1 (stereo not drawn) | inactive: -3.18% |
| CCOc1ccccc1OCCOc1ccc(F)cc1 | inactive: -8.51% |
| O=C1C(Cc2c[nH]c3ccccc23)NC(=S)N1Cc1ccccc1 (stereo not drawn) | inactive: -0.61% |
| COc1ccc(N2C(=O)[C@@H]3Cc4ccccc4CN3C2=O)cc1 | inactive: -5.47% |
| CCC(C(=O)OCCN(CC)CC)c1ccccc1 (stereo not drawn) | inactive: 20.9% |
| CC(C)(C)n1c(=O)[nH]c2c(c1=O)CCC2 | inactive: 0.44% |
| O=C1CC2(CCCC2)CC(=O)N1CCCCN1CCN(c2ncccn2)CC1 | inactive: -12.6% |
| COc1ccc2c(CC(=O)NCC3CCC(C(=O)O)CC3)cc(=O)oc2c1 (stereo not drawn) | inactive: 2.99% |
| CC[C@H]1OC(=O)[C@H](C)[C@@H](O[C@H]2C[C@@](C)(OC)[C@@H](O)[C@H](C)O2)[C@H](C)[C@@H](O[C@@H]2O[C@H](C)C[C@H](N(C)C)[C@H]2O)[C@](C)(O)C[C@@H](C)[C@@H]2N[C@@H](COCCOC)O[C@H]([C@H]2C)[C@]1(C)O | inactive: -9.34% |
| CC(=O)O[C@H]1C(=O)[C@@]2(C)[C@H]([C@H](OC(=O)c3ccccc3)[C@]3(O)C[C@H](OC(=O)[C@H](O)C(NC(=O)c4ccccc4)c4ccccc4)C(C)=C1C3(C)C)[C@]1(OC(C)=O)CO[C@@H]1C[C@@H]2O (stereo partly drawn) | inactive: -11.7% |
| CC(=O)Oc1cc2oc(=O)cc(C)c2cc1OC(C)=O | inactive: -3.58% |
| O=C(NCCC(c1ccccc1)c1ccco1)c1cccs1 (stereo not drawn) | inactive: 8.42% |
| Cn1c2[n+](c3ccc(Cl)cc3c1=O)Cc1ccccc1-2 | inactive: 6.51% |
| O=C(CCCn1c(=O)oc2ccccc21)N1CCN(c2ccc(F)cc2)CC1 | inactive: -0.97% |

| Compound | inhibition |
| --- | --- |
| Cc1ccc(C(=O)Nc2ccccc2C(=O)NC(C(=O)O)C(C)C)cc1 (stereo not drawn) | inactive: 0.22% |
| CCn1c(SCC(=O)c2ccccc2)nc2ccccc2c1=O | inactive: 7.6% |
| COc1ccc(C(=O)C2CCCCC2=O)cc1 (stereo not drawn) | inactive: -4.45% |
| Cc1ccc(-n2cc(CNCCN3CCOC3=O)c(-c3ccc(F)cc3)n2)cc1 | inactive: -13.6% |
| O=C(COc1ccccc1)Nc1ccc2c(c1)C(=O)N(CC1CCCO1)C2=O (stereo not drawn) | inactive: -11.7% |
| COc1cc(Cl)cc2c1Sc1ccccc1/C2=C/CCN(C)C | inactive: 6.56% |
| COc1ccc(C2CC(c3c(O)cc(C)oc3=O)=NCCS2)c(OC)c1 (stereo not drawn) | inactive: 22.5% |
| O=C(Cc1ccccc1[N+](=O)[O-])NCCCN1CCOCC1 | inactive: -4.37% |
| CCOC(=O)c1cccc(C(=O)OCC)n1 | inactive: -3.81% |
| CC(C)(C)[C@]1(O)CCN2C[C@H]3c4ccccc4CCc4cccc(c43)[C@@H]2C1 | inactive: -1.68% |
| COc1ccc(C2=C(CN(C)C)C(c3ccccc3)c3ccccc3O2)cc1 (stereo not drawn) | inactive: 1.13% |
| CN1[C@@H]2CC[C@H]1CC(OC(=O)C(CO)c1ccccc1)C2 (stereo partly drawn) | inactive: -13% |
| CC1Cc2ccccc2N1NC(=O)c1ccc(Cl)c(S(N)(=O)=O)c1 (stereo not drawn) | inactive: -5.24% |
| COc1ccc(CNCCC2(C(C)C)CCOC(C)(C)C2)cc1 (stereo not drawn) | inactive: -3.58% |
| CCN(CC)c1ccc([C@H]2[C@@H]3CCCC[C@]3(O)CCN2CC(=O)NCc2ccco2)cc1 | inactive: 2.08% |
| COC(=O)c1sccc1NC(=O)Nc1ccccc1F | inactive: 0.62% |
| O=C(O)COc1ccc2occ(C(=O)c3ccccc3)c2c1 | inactive: 1.54% |
| CN(C)c1ccc(Nc2c3c4c(cccc4n(C)c2=O)C(=O)c2ccccc2-3)cc1 | inactive: 38.4% |
| COc1cc(-c2cccs2)cc(=O)c2c(C)oc(C)c12 | inactive: 47% |
| O=Cc1ccccc1Oc1ccccc1 | inactive: -9.76% |
| O=C(/C=C/c1ccc(F)cc1)NC(=S)N1CCCCC1c1cccnc1 (stereo not drawn) | inactive: -5.93% |
| O=C(c1ccc(-c2ccccc2)c(F)c1)C1CCCN(C(=O)c2cncs2)C1 (stereo not drawn) | inactive: 9.09% |
| COc1ccc(C(=O)COc2ccc(F)cc2)c(O)c1 | inactive: -6.5% |
| COc1ccc2c(c1OC)C(=O)N1C2SC[C@H]1C(=O)NC1CC(C)(C)NC(C)(C)C1 (stereo partly drawn) | inactive: -1.21% |

| Compound | inhibition |
| --- | --- |
| O=C(NC1CCCCC1)c1cc2nc(-c3ccco3)cc(C(F)(F)F)n2n1 | inactive: -0.83% |
| Cc1c(OCC(F)(F)F)ccnc1CS(=O)c1nc2ccccc2[nH]1 (stereo not drawn) | inactive: 22.8% |
| CC(C)OC(=O)c1ccc(NC(=O)c2cncc(Br)c2)cc1 | inactive: -4.98% |
| CN(C)CCN(Cc1cccs1)c1ccccn1 | inactive: -12.6% |
| CCNC(=O)C12CCC(C)(C(=O)O1)C2(C)C (stereo not drawn) | inactive: -5.33% |
| COc1cc2c(cc1OC)C(c1cc3ccccc3oc1=O)=NC(C)(C)C2 | inactive: 10.2% |
| CCOc1cc2oc(=O)c3c(c2cc1Cl)CCC3 | inactive: -4.77% |
| COc1ccc2oc(-c3ccco3)cc(=O)c2c1 | inactive: 0.3% |
| NC(=O)N1c2ccccc2C=Cc2ccccc21 | inactive: -6.16% |
| COc1cc(C2NCCc3c2[nH]c2ccccc32)ccc1OC(C)C (stereo not drawn) | inactive: 0.82% |
| COc1ccc(N2C(=O)C3CCCN3C2=O)cc1 (stereo not drawn) | inactive: -3.88% |
| COc1cc(=O)n(C)c2ccccc12 | inactive: -8.96% |
| Cc1cc(C(=O)Nc2ccccc2C(=O)N2CCCCC2)ccc1[N+](=O)[O-] | inactive: 0.5% |
| CN(Cc1ccccc1)CC(O)COc1ccc(CNCc2cccnc2)cc1 (stereo not drawn) | inactive: -7.35% |
| COc1ccc2[nH]c3c(c2c1)CCNC3C1CC=C(C)CC1 (stereo not drawn) | inactive: -5.37% |
| CCOC(=O)C1(CCCc2ccccc2)CCN(C2CCN(C(C)=O)CC2)CC1 | inactive: 2.91% |
| NC(=O)[C@@H]1[C@@H]2C(=O)N(c3ccc(F)cc3)C(=O)[C@@H]2[C@H]2C=Cc3ccccc3N21 | inactive: 30.2% |
| COc1ccc(C(=O)/C=C/c2ccc(OC(=O)c3cc(OC)c(OC)c(OC)c3)cc2)cc1 | inactive: 40.8% |
| Cc1ccc2occ(C(=O)c3ccco3)c(=O)c2c1 | inactive: -0.64% |
| O=C(NC(CO)Cc1ccc([N+](=O)[O-])cc1)C(Cl)Cl (stereo not drawn) | inactive: 4.04% |
| CC(=O)NC(Cc1ccccc1)C(=O)OCC(=O)c1ccccc1 (stereo not drawn) | inactive: -3.8% |
